The list shows a part of the results. Sequences were assembled here from the parent chain. Values near 0.05 are background.
B1: TEV protease; numbered along this chain (parent)
chain: MGESLFKGPRDYNPISSSICHLTNESDGHTTSLYGIGFGPFIITNKHLFRRNNGTLVVQSLHGVFKVKDTTTLQQHLVDGRDMIIIRMPKDFPPFPQKLKFREPQREERICLVTTNFQTKSMSSMVSDTSCTFPSGDGIFWKHWIQTKDGQCGSPLVSTRDGFIVGIHSASNFTNTNNYFTSVPKNFMELLTNQEAQQWVSGWRLNADSVLWGGHKVFMVKPEEPFQPVKEATQL

Variants of: B1
Assay: raw area under fraction-flipped curve 0-4 h after induction (AUC4h, not background-subtracted), DNA-recorder readout of cleavage of the substrate (dimensionless); higher = more cleavage of the substrate by the protease variant
Conditions: temperature: 34 °C; time window: 0-4 h after rhamnose induction
Protocol: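 In vivo DNA recorder in E. coli TOP10(DE3) ΔrhaA at 34 °C. Each TEVp single-site mutant (parent TEVp 0) is paired with a single-site variant of the 7-mer TEVs (canonical ENLYFQ|S). The substrate sits between flexible linkers in a Bxb1-sfGFP-TEVs-SsrA fusion, so cleavage stabilises Bxb1 and speeds flipping of a recombination array, read by NGS. The value is the raw area under the fraction-flipped curve over 0-4 h after rhamnose induction (AUC4h), with ≥20 reads per time point. It is not background-subtracted; inactive controls average about 0.047.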
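Note: Bxb1 expression induced with 0.2% (w/v) L-rhamnose at OD600 near 0.5, cultures sampled hourly, flipped fraction per protease–substrate barcode pair counted by paired-end Illumina sequencing.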

| Variant | area with substrate EALYFQS | area with substrate ECLYFQS | area with substrate EELYFQS | area with substrate EGLYFQS | area with substrate EHLYFQS | area with substrate EILYFQS | area with substrate EKLYFQS | area with substrate ELLYFQS | area with substrate EMLYFQS | area with substrate EQLYFQS | area with substrate ERLYFQS | area with substrate ESLYFQS | area with substrate ETLYFQS | area with substrate EVLYFQS | area with substrate EYLYFQS | area with substrate EWLYFQS | area with substrate EFLYFQS | area with substrate EPLYFQS | area with substrate EDLYFQS |
| --- | --- | --- | --- | --- | --- | --- | --- | --- | --- | --- | --- | --- | --- | --- | --- | --- | --- | --- | --- |
| MGESLFKGPRDYNPISSSICHLTNESDGHTTSLYGIGFGPFIITNKHLFRRNNGTLVVQSLHGVFKVKDTTTLQQHLVDGRDMIIIRMPKDFPPFPQKLKFREPQREERICLVTTNFQTKSMSSMISDTSCTFPSGDGIFWKHWIQTKDGQCGSPLVSTRDGFIVGIHSASNFTNTNNYFTSVPKNFMELLTNQEAQQWVSGWRLNADSVLWGGHKVFMVKPEEPFQPVKEATQL [V126I] | 0.108 | 0.118 | 0.123 | 0.0988 | 0.0747 | 0.0857 | 0.121 | 0.0067 | 0.0917 | 0.116 | 0.0966 | 0.0884 | 0.134 | 0.0898 | 0.0809 | – | – | – | – |
| MGESLFKGPRDYNPISSSICHLTNESDGHTTSLYGIGFGPFIITNKHLFRRNNGTLVVQSLHGVFKVKDTTTLQQHLVDGRDMIIIRMPKDFPPFPQKLKFREPQREERICLVTTNFQTKSMSSMCSDTSCTFPSGDGIFWKHWIQTKDGQCGSPLVSTRDGFIVGIHSASNFTNTNNYFTSVPKNFMELLTNQEAQQWVSGWRLNADSVLWGGHKVFMVKPEEPFQPVKEATQL [V126C] | 0.138 | 0.12 | 0.128 | – | – | 0.0805 | 0.108 | – | 0.12 | – | – | – | 0.136 | – | 0.092 | 0.0845 | – | – | – |
| MGESLFKGPRDYNPISSSICHLTNESDGHTTSLYGIGFGPFIITNKHLFRRNNGTLVVQSLHGVFKVKDTTTLQQHLVDGRDMIIIRMPKDFPPFPQKLKFREPQREERICLVTTNFQTKSMSSMVSDTECTFPSGDGIFWKHWIQTKDGQCGSPLVSTRDGFIVGIHSASNFTNTNNYFTSVPKNFMELLTNQEAQQWVSGWRLNADSVLWGGHKVFMVKPEEPFQPVKEATQL [S130E] | 0.115 | – | – | 0.0711 | – | – | 0.0594 | – | 0.0961 | 0.0893 | 0.0721 | 0.0809 | – | – | – | – | 0.0693 | – | – |
| MGESLFKGPRDYNPISSSICHLTNESDGHTTSLYGIGFGPFIITNKHLFRRNNGTLVVQSLHGVFKVKDTTTLQQHLVDGRDMIIIRMPKDFPPFPQKLKFREPQREERICLVTTNFQTKSMNSMVSDTSCTFPSGDGIFWKHWIQTKDGQCGSPLVSTRDGFIVGIHSASNFTNTNNYFTSVPKNFMELLTNQEAQQWVSGWRLNADSVLWGGHKVFMVKPEEPFQPVKEATQL [S123N] | 0.116 | 0.0927 | 0.102 | – | 0.124 | 0.121 | 0.13 | 0.0737 | – | – | 0.105 | 0.115 | 0.0929 | 0.0861 | 0.159 | 0.129 | – | 0.108 | – |
| MGESLFKGPRDYNPISSSICHLTNESDGHTTSLYGIGFGPFIITNKHLFRRNNGTLVVQSLHGVFKVKDTTTLQQHLVDGRDMIIIRMPKDFPPFPQKLKFREPQREERICLVTTNFQTKSMSSMVSDLSCTFPSGDGIFWKHWIQTKDGQCGSPLVSTRDGFIVGIHSASNFTNTNNYFTSVPKNFMELLTNQEAQQWVSGWRLNADSVLWGGHKVFMVKPEEPFQPVKEATQL [T129L] | 0.0797 | – | – | – | 0.107 | 0.0992 | 0.0929 | – | 0.12 | 0.109 | 0.089 | 0.1 | 0.102 | 0.177 | – | 0.0872 | – | – | 0.118 |
| MGESLFKGPRDYNPISSSICHLTNESDGHTTSLYGIGFGPFIITNKHLFRRNNGTLVVQSLHGVFKVKDTTTLQQHLVDGRDMIIIRMPKDFPPFPQKLKFREPQREERICLVTTNFQTKKMSSMVSDTSCTFPSGDGIFWKHWIQTKDGQCGSPLVSTRDGFIVGIHSASNFTNTNNYFTSVPKNFMELLTNQEAQQWVSGWRLNADSVLWGGHKVFMVKPEEPFQPVKEATQL [S121K] | 0.124 | 0.104 | 0.114 | 0.0881 | 0.138 | 0.0948 | 0.135 | – | 0.118 | 0.143 | 0.123 | 0.111 | – | 0.112 | 0.113 | 0.108 | – | – | – |
| MGESLFKGPRDYNPISSSICHLTNESDGHTTSLYGIGFGPFIITNKHLFRRNNGTLVVQSLHGVFKVKDTTTLQQHLVDGRDMIIIRMPKDFPPFPQKLKFREPQREERICLVTTNFQTKSISSMVSDTSCTFPSGDGIFWKHWIQTKDGQCGSPLVSTRDGFIVGIHSASNFTNTNNYFTSVPKNFMELLTNQEAQQWVSGWRLNADSVLWGGHKVFMVKPEEPFQPVKEATQL [M122I] | 0.106 | 0.108 | 0.139 | – | – | 0.0765 | 0.112 | 0.0963 | 0.157 | 0.109 | – | 0.144 | – | 0.0867 | 0.132 | 0.0963 | – | 0.184 | – |
| MGESLFKGPRDYNPISSSICHLTNESDGHTTSLYGIGFGPFIITNKHLFRRNNGTLVVQSLHGVFKVKDTTTLQQHLVDGRDMIIIRMPKDFPPFPQKLKFREPQREERICLVTTNFQTKSVSSMVSDTSCTFPSGDGIFWKHWIQTKDGQCGSPLVSTRDGFIVGIHSASNFTNTNNYFTSVPKNFMELLTNQEAQQWVSGWRLNADSVLWGGHKVFMVKPEEPFQPVKEATQL [M122V] | 0.117 | 0.116 | – | – | – | 0.129 | – | 0.0919 | 0.107 | – | 0.137 | 0.0992 | – | 0.0784 | – | – | – | 0.107 | – |
| MGESLFKGPRDYNPISSSICHLTNESDGHTTSLYGIGFGPFIITNKHLFRRNNGTLVVQSLHGVFKVKDTTTLQQHLVDGRDMIIIRMPKDFPPFPQKLKFREPQREERICLVTTNFQTKSMSSMVIDTSCTFPSGDGIFWKHWIQTKDGQCGSPLVSTRDGFIVGIHSASNFTNTNNYFTSVPKNFMELLTNQEAQQWVSGWRLNADSVLWGGHKVFMVKPEEPFQPVKEATQL [S127I] | 0.117 | 0.111 | 0.128 | 0.102 | 0.127 | 0.101 | – | 0.0851 | 0.108 | 0.121 | – | 0.0462 | 0.109 | 0.0989 | – | 0.109 | 0.112 | 0.126 | – |
| MGESLFKGPRDYNPISSSICHLTNESDGHTTSLYGIGFGPFIITNKHLFRRNNGTLVVQSLHGVFKVKDTTTLQQHLVDGRDMIIIRMPKDFPPFPQKLKFREPQREERICLVTTNFQTKSMSSMVLDTSCTFPSGDGIFWKHWIQTKDGQCGSPLVSTRDGFIVGIHSASNFTNTNNYFTSVPKNFMELLTNQEAQQWVSGWRLNADSVLWGGHKVFMVKPEEPFQPVKEATQL [S127L] | 0.129 | – | – | – | – | – | – | 0.108 | – | 0.135 | 0.0983 | 0.0352 | 0.112 | 0.0947 | – | – | – | 0.142 | 0.136 |
